This passage reports EC50 results from patent publication US11040047B2, “Prodrugs of nucleoside phosphonates” (Katholieke Universiteit Leuven, priority 2017, dated 2021).

Assay in all cases: microbe, parasite or virus in culture
Assay [1] concerns thymidine kinase-deficient (TK−) HSV-1 KOS strain resistant to ACV (ACVr). The class given is cell-based, herpes simplex virus 1. Conditions: Human alphaherpesvirus 1, HEL, read-out: Antiviral activity EC50 HSV-1 KOS ACVr strain.
Assay [2] has as its system herpes simplex virus 1 (HSV-1) strain KOS. The note with it: Human alphaherpesvirus 1, HEL, read-out: Antiviral activity EC50 HSV-1 KOS strain.
The subject of assay [3] is herpes simplex virus 2 (HSV-2) strain G. The note with it: Human alphaherpesvirus 2, HEL, read-out: Antiviral activity EC50 HSV-2 G strain.

The EC50 is the concentration at which the effect is half-maximal. In the case of `CCCCCOC(=O)C[C@H](NP1(=O)CO[C@@H](Cn2cnc3c(N)ncnc32)CO1)C(=O)OCCCCC` (stereo partly drawn) [Example 8, Diamyl {(5S)-5-[(6-amino-9H-purin-9-yl)methyl]-2-oxido-1,4,2-dioxaphosphinan-2-yl}-L-aspartate], the EC50 in assay [1] came to 0.73 nM; in assay [2], 3.2 nM; in assay [3], 2 nM.
With `CCCCCOC(=O)[C@@H](NP1(=O)CO[C@@H](Cn2cnc3c(N)ncnc32)CO1)[C@@H](C)CC` (stereo partly drawn) [Example 18, Amyl {(5S)-5-[(6-amino-9H-purin-9-yl)methyl]-2-oxido-1,4,2-dioxaphosphinan-2-yl}-L-isoleucinate], the EC50 was determined as 1.9 nM in assay [1], 2 nM in assay [2] and 2.7 nM in assay [3].
`O=c1[nH]c(=O)n([C@H]2C[C@H](O)[C@@H](CO)O2)cc1/C=C/Br` [Brivudin, reference compound]: the EC50 in assay [1] was more than 30000 nM.
Turning to `CCCCCOC(=O)C[C@H](NP1(=O)CO[C@H](Cn2ccc(N)nc2=O)CO1)C(=O)OCCCCC` (stereo partly drawn) [Example 11, Diamyl {(5R)-5-[(4-amino-2-oxopyrimidin-1(2H)-yl)methyl]-2-oxido-1,4,2-dioxaphosphinan-2-yl}-L-aspartate], the values for the EC50 in assay [1], in assay [2] and in assay [3] were 1580 nM, 2420 nM and 3450 nM, respectively.
With `CCCCCOC(=O)C[C@H](NP1(=O)CO[C@H](Cn2cnc3c(N)ncnc32)CO1)C(=O)OCCCCC` (stereo partly drawn) [Example 9, Diamyl {(5R)-5-[(6-amino-9H-purin-9-yl)methyl]-2-oxido-1,4,2-dioxaphosphinan-2-yl}-L-aspartate], the figures for the EC50 in assay [1], in assay [2] and in assay [3] were 76 nM, 210 nM and 110 nM, respectively.
As to `CCCCCOC(=O)[C@@H](NP(=O)(CO[C@H](CO)Cn1cnc2c(N)ncnc21)N[C@H](C(=O)OCCCCC)C(C)C)C(C)C` [Example 19, diamyl 2,2′-((((((S)-1-(6-amino-9H-purin-9-yl)-3-hydroxypropan-2-yl)oxy)methyl)phosphoryl)bis(azanediyl))(2S,2′S)-bis(3-methylbutanoate)], the figures for the EC50 in assay [1], in assay [2] and in assay [3] were 0.9 nM, 2.3 nM and 2.8 nM, respectively.
Regarding `CCCCCOC(=O)[C@H](CC(C)C)NP1(=O)CO[C@@H](Cn2cnc3c(N)ncnc32)CO1` (stereo partly drawn) [Example 17, Amyl {(5S)-5-[(6-amino-9H-purin-9-yl)methyl]-2-oxido-1,4,2-dioxaphosphinan-2-yl}-L-leucinate], the EC50 in assay [1] worked out at 1.3 nM; in assay [2], 2 nM; in assay [3], 1.9 nM.
Take `CCCCCOC(=O)[C@@H](NP1(=O)CO[C@@H](Cn2cnc3c(N)ncnc32)CO1)C(C)C` (stereo partly drawn) [Example 16, Amyl {(5S)-5-[(6-amino-9H-purin-9-yl)methyl]-2-oxido-1,4,2-dioxaphosphinan-2-yl}-L-valinate]: the half-maximal effective concentration (EC50) in assay [1] is 1.8 nM; in assay [2], 3 nM; in assay [3], 1.9 nM.
For `CCCCCOC(=O)[C@H](Cc1ccccc1)NP1(=O)CO[C@@H](Cn2cnc3c(N)ncnc32)CO1` (stereo partly drawn) [Example 12, Amyl ((5S)-5-((6-amino-9H-purin-9-yl)methyl)-2-oxido-1,4,2-dioxaphosphinan-2-yl)-L-phenylalaninate], in that order: 1.5 nM, 3.5 nM and 2.3 nM.
For `CCCCCOC(=O)CC[C@H](NP1(=O)CO[C@@H](Cn2cnc3c(N)ncnc32)CO1)C(=O)OCCCCC` (stereo partly drawn) [Example 15, Diamyl {(5S)-5-[(6-amino-9H-purin-9-yl)methyl]-2-oxido-1,4,2-dioxaphosphinan-2-yl}-L-glutamate], in that order: 1.2 nM, 1.2 nM and 2.5 nM.
For the molecule `CCCCCOC(=O)[C@H](C)NP1(=O)CO[C@@H](Cn2cnc3c(N)ncnc32)CO1` (stereo partly drawn) [Example 14, Amyl ((5S)-5-((6-amino-9H-purin-9-yl)methyl)-2-oxido-1,4,2-dioxaphosphinan-2-yl)-L-alaninate], the EC50 was determined as 10 nM in assay [1], 20 nM in assay [2] and 17 nM in assay [3].
In the case of `CCCCCOC(=O)[C@H](CCSC)NP1(=O)CO[C@@H](Cn2cnc3c(N)ncnc32)CO1` (stereo partly drawn) [Example 13, Amyl ((5S)-5-((6-amino-9H-purin-9-yl)methyl)-2-oxido-1,4,2-dioxaphosphinan-2-yl)-L-methioninate], the EC50 in assay [1] worked out at 5.7 nM; in assay [2], 8.9 nM; in assay [3], 11 nM.
For `Nc1nc2c(ncn2CCC(CO)CO)c(=O)[nH]1` [Penciclovir, reference compound] the same measures were more than 79000 nM, 480 nM and 840 nM.
Take `CCCCCOC(=O)C[C@H](NP1(=O)CO[C@@H](Cn2ccc(N)nc2=O)CO1)C(=O)OCCCCC` (stereo partly drawn) [Example 10, Diamyl {(5S)-5-[(4-amino-2-oxopyrimidin-1(2H)-yl)methyl]-2-oxido-1,4,2-dioxaphosphinan-2-yl}-L-aspartate]: the EC50 in assay [1] amounted to 7.7 nM; in assay [2] it was 14 nM; in assay [3] it was 13 nM.
